From the supplement of paper PMC3334620
Whole data set: some 33,000 sequences, median “E-score (-0.5 to 0.5)” near -0.011, cut for the highest 2% near 0.28. This is one part of the list.

target: T1, Gcr1 (UniProt P07261); test: PBM E-score (8-mer binding enrichment) (E-score (-0.5 to 0.5)); higher = stronger / more preferred TF binding; most listed sequences are background and not binding sites; settings: protein concentration: 100 nM; construct: GST-full length
T1 sequence: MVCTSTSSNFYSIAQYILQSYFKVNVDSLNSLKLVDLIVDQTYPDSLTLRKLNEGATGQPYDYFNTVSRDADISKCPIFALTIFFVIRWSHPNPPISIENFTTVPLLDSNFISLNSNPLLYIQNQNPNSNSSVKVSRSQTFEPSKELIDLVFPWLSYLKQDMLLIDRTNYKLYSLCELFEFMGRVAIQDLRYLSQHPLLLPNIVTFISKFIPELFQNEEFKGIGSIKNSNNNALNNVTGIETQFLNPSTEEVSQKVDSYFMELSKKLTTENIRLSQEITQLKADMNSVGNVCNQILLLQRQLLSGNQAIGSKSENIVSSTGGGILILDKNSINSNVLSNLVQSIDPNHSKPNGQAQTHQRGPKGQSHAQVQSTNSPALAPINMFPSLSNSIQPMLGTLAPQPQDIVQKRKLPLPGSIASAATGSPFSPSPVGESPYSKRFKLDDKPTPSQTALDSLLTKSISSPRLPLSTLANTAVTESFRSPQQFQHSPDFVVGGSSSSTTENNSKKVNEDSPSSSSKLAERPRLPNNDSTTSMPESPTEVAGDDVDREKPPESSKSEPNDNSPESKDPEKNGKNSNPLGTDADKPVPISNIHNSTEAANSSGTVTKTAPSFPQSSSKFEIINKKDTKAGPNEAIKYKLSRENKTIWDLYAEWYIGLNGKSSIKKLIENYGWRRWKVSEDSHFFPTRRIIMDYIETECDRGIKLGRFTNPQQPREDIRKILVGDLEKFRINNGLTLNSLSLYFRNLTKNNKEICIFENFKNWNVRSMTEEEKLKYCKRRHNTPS
How it was run: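 Masliner-normalised scans of fluorescent anti-GST signal were the basis for scoring. That signal came from GST-tagged yeast transcription factors applied at about 100-200 nM to double-stranded universal all-10-mer Agilent arrays on fresh or once-stripped slides. Each ungapped eight-base word, pooled with its reverse complement, received an E-score from the Universal PBM Analysis Suite.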

Q: For ACATGTGA, which “PBM E-score” value is on record?
A: -0.0765

Q: For CAGGGTGG, which “PBM E-score” value is on record?
A: 0.00462

Q: Which “PBM E-score” value does the source give for CTGTTGAC here?
A: -0.0113

Q: With ACTTTATA as the sequence, how does the “PBM E-score” value read?
A: 0.234

Q: How did the “PBM E-score” value turn out when ATACAAGC was run?
A: 0.0736

Q: Which “PBM E-score” value does the source give for CGACTGGC here?
A: -0.241

Q: TACGGATA was tested. Which “PBM E-score” value did it give?
A: 0.06

Q: With GCTCGGTA as the sequence, how does the “PBM E-score” value read?
A: -0.0759

Q: How did the “PBM E-score” value turn out when AGCATAAC was run?
A: -0.0523

Q: For GTCAGGGA, which “PBM E-score” value is on record?
A: -0.122

Q: How did the “PBM E-score” value turn out when ATGTTCGA was run?
A: -0.00159

Q: ATTGACTC was tested. Which “PBM E-score” value did it give?
A: 0.0405

Q: With CGCAACGC as the sequence, how does the “PBM E-score” value read?
A: 0.104

Q: Which “PBM E-score” value does the source give for GCGCACAC here?
A: -0.128

Q: For CAGATTTC, which “PBM E-score” value is on record?
A: -0.107

Q: How did the “PBM E-score” value turn out when GGGGATAC was run?
A: 0.0984

Q: For CAAGTCAC, which “PBM E-score” value is on record?
A: -0.0286

Q: For GAGCACCC, which “PBM E-score” value is on record?
A: 0.329

Q: For ACAGTTTA, which “PBM E-score” value is on record?
A: 0.122

Q: AGTCAAAG was tested. Which “PBM E-score” value did it give?
A: -0.229

Q: For ACGCACAA, which “PBM E-score” value is on record?
A: -0.129

Q: For AATGAAGG, which “PBM E-score” value is on record?
A: -0.12

Q: GACTGCCA was tested. Which “PBM E-score” value did it give?
A: 0.0609

Q: Which “PBM E-score” value does the source give for GCCGCCCA here?
A: 0.0396

Q: With ACGTGCCC as the sequence, how does the “PBM E-score” value read?
A: 0.0348

Q: For GGCTTTCA, which “PBM E-score” value is on record?
A: -0.109

Q: With CGTTGGAG as the sequence, how does the “PBM E-score” value read?
A: -0.106

Q: Which “PBM E-score” value does the source give for GTTTCACA here?
A: 0.0174

Q: With CGGATTAC as the sequence, how does the “PBM E-score” value read?
A: -0.0413

Q: How did the “PBM E-score” value turn out when CACGCCTA was run?
A: -0.094

Q: With CCTAGAGC as the sequence, how does the “PBM E-score” value read?
A: 0.0413

Q: For ATGAAAGC, which “PBM E-score” value is on record?
A: -0.00357

Q: How did the “PBM E-score” value turn out when AGGCACGA was run?
A: -0.0558

Q: How did the “PBM E-score” value turn out when CAGAGAAC was run?
A: -0.0834

Q: For TTAGGGAA, which “PBM E-score” value is on record?
A: 0.205

Q: Which “PBM E-score” value does the source give for TCTCTACA here?
A: -0.12

Q: GCGGTCCC was tested. Which “PBM E-score” value did it give?
A: -0.0174

Q: For AACAAACG, which “PBM E-score” value is on record?
A: 0.0298

Q: AGTCTGGA was tested. Which “PBM E-score” value did it give?
A: -0.0476

Q: CCTCGATA was tested. Which “PBM E-score” value did it give?
A: 0.0184

Q: AATCAGAA was tested. Which “PBM E-score” value did it give?
A: 0.181

Q: GGACTGAC was tested. Which “PBM E-score” value did it give?
A: -0.287

Q: ATCTCCAT was tested. Which “PBM E-score” value did it give?
A: -0.101

Q: AATTTGAG was tested. Which “PBM E-score” value did it give?
A: 0.137

Q: With ATTTATTA as the sequence, how does the “PBM E-score” value read?
A: 0.0873

Q: Which “PBM E-score” value does the source give for TTTGAAAA here?
A: 0.0876

Q: With ACAAGCTC as the sequence, how does the “PBM E-score” value read?
A: -0.215

Q: How did the “PBM E-score” value turn out when CGAAGGAC was run?
A: -0.0446

Q: Which “PBM E-score” value does the source give for CACTGTCG here?
A: -0.166

Q: For GGCCAGCC, which “PBM E-score” value is on record?
A: -0.296

Q: Which “PBM E-score” value does the source give for GACTAGTA here?
A: 0.113

Q: With ACCCCCCG as the sequence, how does the “PBM E-score” value read?
A: -0.111

Q: For ACTATTTC, which “PBM E-score” value is on record?
A: 0.104

Q: How did the “PBM E-score” value turn out when GATATCAC was run?
A: -0.0191

Q: Which “PBM E-score” value does the source give for CGTTGCAC here?
A: -0.121

Q: ACAGTTCG was tested. Which “PBM E-score” value did it give?
A: -0.125

Q: AATTCGAC was tested. Which “PBM E-score” value did it give?
A: -0.176

Q: With CGCACCGA as the sequence, how does the “PBM E-score” value read?
A: -0.244

Q: For CCGTTTCG, which “PBM E-score” value is on record?
A: -0.0553

Q: For CCACTGAC, which “PBM E-score” value is on record?
A: -0.0793

Q: How did the “PBM E-score” value turn out when TGGACAAA was run?
A: 0.0886

Q: How did the “PBM E-score” value turn out when CCTGTAGC was run?
A: 0.19

Q: CTCTGGGC was tested. Which “PBM E-score” value did it give?
A: 0.0201

Q: Which “PBM E-score” value does the source give for GCCTTAAC here?
A: -0.219

Q: With ACCCTACC as the sequence, how does the “PBM E-score” value read?
A: -0.183

Q: TACGATGA was tested. Which “PBM E-score” value did it give?
A: -0.125

Q: Which “PBM E-score” value does the source give for AGAGCGTA here?
A: -0.19

Q: Which “PBM E-score” value does the source give for CTTGTGCA here?
A: 0.0382

Q: For ATCGAGAG, which “PBM E-score” value is on record?
A: 0.0256

Q: How did the “PBM E-score” value turn out when AGTGAGCA was run?
A: -0.188

Q: How did the “PBM E-score” value turn out when CGAACCGC was run?
A: -0.0735

Q: TATCATAA was tested. Which “PBM E-score” value did it give?
A: -0.0405

Q: With CGACGCGC as the sequence, how does the “PBM E-score” value read?
A: 0.0401

Q: GACGCGCA was tested. Which “PBM E-score” value did it give?
A: -0.0116

Q: For AATGACGC, which “PBM E-score” value is on record?
A: -0.155

Q: AACACCGG was tested. Which “PBM E-score” value did it give?
A: 0.0694

Q: For CGAGGCGC, which “PBM E-score” value is on record?
A: 0.196

Q: For AACCGGGG, which “PBM E-score” value is on record?
A: 0.0848

Q: How did the “PBM E-score” value turn out when AGGGGTAA was run?
A: -0.138

Q: How did the “PBM E-score” value turn out when ACAGGACT was run?
A: -0.0157

Q: How did the “PBM E-score” value turn out when AAGATGGT was run?
A: 0.0834

Q: How did the “PBM E-score” value turn out when GATAGATA was run?
A: 0.11

Q: Which “PBM E-score” value does the source give for GATCAGGA here?
A: 0.172

Q: For TGTGAAAA, which “PBM E-score” value is on record?
A: -0.00217

Q: Which “PBM E-score” value does the source give for AAGGAACT here?
A: 0.0335

Q: For ACATATAG, which “PBM E-score” value is on record?
A: 0.146
